Measurements as given in PubChem BioAssay (Tox21).
Several values for one entry are separate records, joined by “and”; a condition that tells them apart may be missing. Identical values can stand only once. The shares of active, inactive and inconclusive entries below differ from those in the screen. Potencies of inconclusive entries are doubtful fits and often do not repeat. Activity calls are given as the source filed them. Unless noted, the call rests on the fitted dose curve; in most records, active means well fitted curve in the direction sought with a large enough effect in the repeat runs; inconclusive means weak or mixed curves; inactive means no such curve, though single readings can be large; an effect the other way counts as inactive or inconclusive.

Assay: qHTS assay to identify small molecule agonists of H2AX - cell viability counter screen (AID 1224847; calls by dose curve; further: nearly all actives have a fitted effect of over 30% in size)
Conditions: CHO-K1 viability, CellTiter-Glo luminescence, 3 h; series mostly up to 154 µM; activity change, negative = cytotoxicity: at the top concentration
How it was run: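 We seed wild-type CHO-K1 cells overnight, treat them for 3 hr at 37C with compounds in 15-concentration series, and quantify remaining viability by CellTiter-Glo luminescence.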
Potency means the concentration at half of the fitted maximal effect; tags describe the fitted curve by direction and shape.

Compound	Potency
CNCCCC12CCC(c3ccccc31)c1ccccc12	inconclusive: 61.9 µM [cytotoxic, single point]
Nc1ccc(O)c(N)c1	active: 56.3 µM and active: 50.5 µM
O=C(O)c1ccc(-n2nc(-c3ccccc3O)nc2-c2ccccc2O)cc1	inconclusive: 0.156 µM [rising, partial curve]
CNc1ccc(O)cc1	active: 101 µM
COc1cccc2c1C(=O)c1c(O)c3c(c(O)c1C2=O)C[C@@](O)(C(=O)CO)C[C@@H]3O[C@H]1C[C@H](N)[C@H](O[C@@H]2CCCCO2)[C@H](C)O1	inconclusive: 31 µM [cytotoxic, partial curve, poor fit]
Nc1cc(S(=O)(=O)O)cc2cc(S(=O)(=O)O)cc(O)c12	inconclusive: 45 µM [cytotoxic, full curve]
COc1cc(C=C2CCC/C(=C\c3ccc(O)c(OC)c3)C2=O)ccc1O	inconclusive: 61.9 µM [cytotoxic, single point]

Assay: qHTS assay to identify small molecule antagonists of the estrogen related receptor (ERR) signaling pathway from Tox21 library (AID 1224848); further: nearly all actives have a fitted effect of over 50% in size; on activity, negative = inhibition: on the % scale 0 is the no-effect control and ±100 the full control effect
Conditions: ERR reporter cell line, luciferase antagonist mode, 18 h; series mostly up to 92.4 µM; activity, negative = inhibition: at the top concentration
How it was run: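 Screening used an ERR reporter line supplied by NTP, exposed for 18 h at 37 C to library compounds delivered in DMSO. Signal was luciferase luminescence developed with ONE-Glo at room temperature for 30 min.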

Compound	Potency
CC(=O)[C@H]1CC[C@H]2[C@@H]3CCC4=CC(=O)CC[C@]4(C)[C@H]3CC[C@]12C	active: 13.6 µM and active: 15.4 µM
Nc1ccc(O)c(N)c1	inactive
CNc1ccc(O)cc1	inconclusive: 68.5 µM [inhibitor, single point]
COc1cccc2c1C(=O)c1c(O)c3c(c(O)c1C2=O)C[C@@](O)(C(=O)CO)C[C@@H]3O[C@H]1C[C@H](N)[C@H](O[C@@H]2CCCCO2)[C@H](C)O1	active: 4.22 µM
COc1cc(C=C2CCC/C(=C\c3ccc(O)c(OC)c3)C2=O)ccc1O	active: 8.41 µM

Assay: qHTS RealTime-Glo MT Cell Viability Assay in HepG2 cells - 24 hour (AID 1224867); further: nearly all actives have a fitted effect of over 50% in size
Conditions: RealTime-Glo luminescence; series mostly up to 76.8 µM; activity change, negative = cytotoxicity: at the top concentration
How it was run: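 Luminescence read-out: viable HepG2 cells reduce a prosubstrate to a NanoLuc substrate, giving a signal proportional to live cell number. Reads taken at 0, 8, 16, 24, 32 and 40 h of compound exposure at 37 C.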

Compound	Potency
CNCCCC12CCC(c3ccccc31)c1ccccc12	active: 49 µM and active: 23.9 µM
CC(=O)[C@H]1CC[C@H]2[C@@H]3CCC4=CC(=O)CC[C@]4(C)[C@H]3CC[C@]12C	inconclusive: 48.7 µM [falling, partial curve] and inconclusive: 24.5 µM [falling, partial curve]
CC[C@H]1CN2CCc3cc(OC)c(OC)cc3[C@@H]2C[C@@H]1C[C@H]1NCCc2cc(OC)c(OC)cc21	inconclusive: 619 nM [falling, full curve] and inconclusive: 425 nM [falling, full curve]
CNc1ccc(O)cc1	inconclusive: 54.8 µM [falling, single point]
Nc1cc(S(=O)(=O)O)cc2cc(S(=O)(=O)O)cc(O)c12	inconclusive: 38.9 µM [falling, partial curve, poor fit]
COc1cc(C=C2CCC/C(=C\c3ccc(O)c(OC)c3)C2=O)ccc1O	inconclusive: 23.9 µM [falling, partial curve]

Assay: qHTS RealTime-Glo MT Cell Viability Assay in HEK293 cells - 32 hour (AID 1224868); further: nearly all actives have a fitted effect of over 50% in size
Conditions: RealTime-Glo luminescence; series mostly up to 76.8 µM; activity change, negative = cytotoxic: at the top concentration
How it was run: (§1)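 Nonlytic real-time viability readout: viable cells convert prosubstrate to NanoLuc substrate, giving luminescence proportional to live cell number. HEK293, 600 cells/well, compound added after 5 h, continuous culture at 37 C.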

Compound	Potency
S=c1nc[nH]c2nc[nH]c12	inconclusive: 26.8 µM [cytotoxic, single point]
O=C(O)c1ccc(-n2nc(-c3ccccc3O)nc2-c2ccccc2O)cc1	inconclusive: 19 µM [cytotoxic, partial curve]
CNc1ccc(O)cc1	active: 12.3 µM
Nc1cc(S(=O)(=O)O)cc2cc(S(=O)(=O)O)cc(O)c12	inconclusive: 24.5 µM [cytotoxic, partial curve]
COc1cc(C=C2CCC/C(=C\c3ccc(O)c(OC)c3)C2=O)ccc1O	active: 23.9 µM

Assay: qHTS RealTime-Glo MT Cell Viability Assay in HepG2 cells - 40 hour (AID 1224870); further: nearly all actives have a fitted effect of over 50% in size
Conditions: RealTime-Glo luminescence; series mostly up to 76.8 µM; activity change, negative = cytotoxic: at the top concentration
How it was run: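 HepG2 cells mixed with RealTime-Glo MT reagents (NanoLuc plus cell-permeant prosubstrate) were seeded at 600 cells/well, incubated 5 h at 37 C/5% CO2, then pinned with compounds in DMSO; nonlytic luminescence tracked viability during 40 h treatment.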

Compound	Potency
CC[C@H]1CN2CCc3cc(OC)c(OC)cc3[C@@H]2C[C@@H]1C[C@H]1NCCc2cc(OC)c(OC)cc21	inconclusive: 24.6 µM [falling, partial curve] and inconclusive: 3.38 µM [falling, partial curve]
CNc1ccc(O)cc1	inconclusive: 61.5 µM [falling, single point]
COc1cccc2c1C(=O)c1c(O)c3c(c(O)c1C2=O)C[C@@](O)(C(=O)CO)C[C@@H]3O[C@H]1C[C@H](N)[C@H](O[C@@H]2CCCCO2)[C@H](C)O1	active: 1.9 µM

Assay: A CellTox Green Cytotoxicity Assay to monitor cytotoxicity in HEK293 cells - 40 hour (AID 1224871); further: nearly all actives have a fitted effect of over 45% in size; on cytotoxicity increase: on the % scale 0 is the no-effect control and ±100 the full control effect
Conditions: CellTox Green fluorescence; series mostly up to 76.8 µM; cytotoxicity increase: at the top concentration
How it was run: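 HEK293 cells premixed with CellTox Green dye were seeded at 600 cells/well and left 5 h at 37 C/5% CO2 before pin transfer of 23 nL compound in DMSO. Fluorescence from dye bound to dead-cell DNA was read during 40 h treatment.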

Compound	Potency	cytotoxicity increase
CNCCCC12CCC(c3ccccc31)c1ccccc12	inconclusive: 26.8 µM [activator, single point]	
O=C(O)c1ccc(-n2nc(-c3ccccc3O)nc2-c2ccccc2O)cc1		inactive: -7.91% [at 35.3 µM]
CC[C@H]1CN2CCc3cc(OC)c(OC)cc3[C@@H]2C[C@@H]1C[C@H]1NCCc2cc(OC)c(OC)cc21	inconclusive: 5.35 µM [activator, partial curve, poor fit]	
CNc1ccc(O)cc1	active: 9.75 µM	
COc1cc(C=C2CCC/C(=C\c3ccc(O)c(OC)c3)C2=O)ccc1O	inconclusive: 26.8 µM [activator, single point]	

Assay: qHTS RealTime-Glo MT Cell Viability Assay in HEK293 cells - 16 hour (AID 1224872); further: nearly all actives have a fitted effect of over 50% in size; on activity change, negative = cytotoxicity: top concentration of the series differs between compounds; on the % scale 0 is the no-effect control and ±100 the full control effect
Conditions: RealTime-Glo luminescence; series mostly up to 76.8 µM; activity change, negative = cytotoxicity: at the top concentration
How it was run: as §1

Compound	Potency
S=c1nc[nH]c2nc[nH]c12	inconclusive: 26.9 µM [cytotoxic, partial curve] and inactive
CNCCCC12CCC(c3ccccc31)c1ccccc12	inconclusive: 26.8 µM [cytotoxic, single point]
CC(=O)[C@H]1CC[C@H]2[C@@H]3CCC4=CC(=O)CC[C@]4(C)[C@H]3CC[C@]12C	active: 15.4 µM and active: 19.5 µM
Nc1ccc(O)c(N)c1	inconclusive: 61.2 µM [cytotoxic, partial curve, poor fit]
COc1cccc2c1C(=O)c1c(O)c3c(c(O)c1C2=O)C[C@@](O)(C(=O)CO)C[C@@H]3O[C@H]1C[C@H](N)[C@H](O[C@@H]2CCCCO2)[C@H](C)O1	inconclusive: 0.674 µM [cytotoxic, full curve]
